Data on one molecule can be found in patent publication US20250387505A1, “ANTI-FGFR3 ANTIBODY CONJUGATE AND MEDICAL USE THEREOF” (GENEQUANTUM HEALTHCARE (SUZHOU) CO., LTD., priority 2022, published 2025).

The target in one assay is T1, human FGFR3 (Homo sapiens, UniProt P22607).
T1 construct: purchased R&D systems 1264-FR-050
T1 sequence (P22607 23-377 isoform P22607-2 limits assumed): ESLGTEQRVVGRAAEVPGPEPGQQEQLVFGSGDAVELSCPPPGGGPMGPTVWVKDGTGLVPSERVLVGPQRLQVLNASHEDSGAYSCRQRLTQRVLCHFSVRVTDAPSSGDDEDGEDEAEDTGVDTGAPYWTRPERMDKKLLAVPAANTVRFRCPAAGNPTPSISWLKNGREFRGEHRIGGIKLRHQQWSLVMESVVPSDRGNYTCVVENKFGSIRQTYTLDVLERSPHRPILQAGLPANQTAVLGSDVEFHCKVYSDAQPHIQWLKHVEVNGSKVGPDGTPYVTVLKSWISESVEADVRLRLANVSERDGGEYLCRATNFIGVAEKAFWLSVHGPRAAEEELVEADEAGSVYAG
Briefly: Affinity ELISA analysis of antibodies. Format: binding. Particulars: human FGFR3, FIG. 2. As for the experimental part:
(§1) 1) One microgram per milliliter of each human FGFR3 (R&D systems, 1264-FR-050), cynomolgus FGFR3 (Sino Biological, 90313-C02H) protein or mouse FGFR3 (R&D systems, 710-MF-050) was coated on 96-well plates at 4° C. for over-night, respectively. The plates were blocked in 3% skim milk containing anti-FGFR3-antibodies and incubated for 1 h at room temperature. After washing with PBST (0.1%), the anti-human Fab antibody conjugated horseradish peroxidase (HRP) (Thermo Scientific, 31482, Waltham, MA, USA) was added at a ratio of 1:3000. Following the wash, the plate was treated with TMB solution (Thermo Scientific, N301, Waltham, MA, USA) as an HRP substrate, and the reaction was stopped with STOP solution (Cell Signaling Technology, #7002, Danvers, MA, USA).
(§2) The absorbance for each well was detected at 450 nm wavelength.
Background: In an ELISA, binding on a coated surface is turned into a signal by an enzyme label.

The test system of assay [1] is cynomolgus FGFR3. The experiment in a line: Affinity ELISA analysis of antibodies. The format is binding. The note with it: cynomolgus FGFR3, FIG. 2. As for the experimental part: as §1, §2
Assay [2] deals with AMB-BT-0050T cells (positive FGFR3 expression). The experiment in a line: Cell binding analysis by flow cytometry. The format is cell-based, human. The protocol:
1) The cell surface binding efficiency of anti-FGFR3 antibodies were analyzed using flow cytometry. About 3.0×10^5 to 5.0×10^5 FGFR3-overexpressing or FGFR3 non-expression cells were incubated with anti-FGFR3 antibodies at 4° C. for 1 h. After washing twice with Flow Cytometry Staining Buffer, the cells were stained with the goat anti-human IgG cross-adsorbed secondary antibody conjugated with Alexa Fluor 488 (Invitrogen, A-11013, Carlsbad, CA, USA) diluted 1:200 in staining buffer at 4° C. for 30 min. Mean fluorescence intensity was analyzed by flow cytometry.
The results of this analysis are shown in FIGS. 5 and 6.1, wherein AMB-BT-0050T is a cell with positive FGFR3 expression, while AMB-BT-0013T is a cell with negative FGFR3 expression. AMB-BT-0050T, AMB-BT-0013T is sampled from patients suffering brain cancer (glioblastoma).

The next assay addresses T2, Human FGFR3-IIIb (Homo sapiens, UniProt P22607).
T2 construct: purchased R&D systems 1264-FR-050
T2 sequence (P22607 23-377 isoform P22607-2 limits assumed): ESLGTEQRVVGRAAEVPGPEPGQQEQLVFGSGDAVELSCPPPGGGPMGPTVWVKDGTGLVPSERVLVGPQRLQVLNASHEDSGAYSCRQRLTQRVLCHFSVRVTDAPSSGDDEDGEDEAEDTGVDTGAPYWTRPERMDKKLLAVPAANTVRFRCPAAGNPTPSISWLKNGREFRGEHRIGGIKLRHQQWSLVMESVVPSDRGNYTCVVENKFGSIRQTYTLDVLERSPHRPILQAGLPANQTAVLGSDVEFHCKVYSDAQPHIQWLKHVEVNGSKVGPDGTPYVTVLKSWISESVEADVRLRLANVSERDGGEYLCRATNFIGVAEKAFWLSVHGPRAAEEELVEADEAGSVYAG
The experiment in a line: SPR analysis (Biacore 3000) of binding affinity. As for the experimental part: (§3) The binding affinity (KD value) of the anti-FGFR3 antibody was measured using a Biacore 3000. Human (FGFR3-IIIb and -IIIc, R&D systems, 1264-FR-050), mouse (R&D systems, 710-MF-050) and cynomolgus FGFR3 proteins (Sino Biological, 90313-C02H) were coated with an amine coupling kit (GE Healthcare Life Sciences, BR100050, Uppsala, Sweden).

The next assay concerns the target T3, Human FGFR3-IIIc (Homo sapiens, UniProt P22607).
T3 construct: purchased R&D systems 1264-FR-050
T3 sequence (P22607 23-375 limits assumed): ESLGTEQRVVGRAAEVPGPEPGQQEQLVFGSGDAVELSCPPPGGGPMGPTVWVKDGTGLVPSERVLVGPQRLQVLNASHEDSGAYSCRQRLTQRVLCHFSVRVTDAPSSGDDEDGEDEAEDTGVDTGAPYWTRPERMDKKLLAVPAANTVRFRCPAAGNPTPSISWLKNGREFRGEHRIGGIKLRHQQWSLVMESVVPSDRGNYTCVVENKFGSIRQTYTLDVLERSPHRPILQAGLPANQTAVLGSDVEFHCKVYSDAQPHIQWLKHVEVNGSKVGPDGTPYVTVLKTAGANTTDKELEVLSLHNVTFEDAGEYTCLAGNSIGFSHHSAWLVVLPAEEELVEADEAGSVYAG
The experiment in a line: SPR analysis (Biacore 3000) of binding affinity. The protocol: as §3
(SPR reads the build-up and loss of mass on a sensor chip optically.)

In assay [3] the test system is cynomolgus FGFR3. The experiment in a line: SPR analysis (Biacore 3000) of binding affinity. The note with it: FGFR3, Monkey. As for the experimental part: as §3
Another assay concerns the target T4, mouse FGFR3 (Mus musculus, UniProt Q61851).
T4 construct: purchased R&D systems 710-MF-050
T4 sequence (Q61851 21-369 limits assumed): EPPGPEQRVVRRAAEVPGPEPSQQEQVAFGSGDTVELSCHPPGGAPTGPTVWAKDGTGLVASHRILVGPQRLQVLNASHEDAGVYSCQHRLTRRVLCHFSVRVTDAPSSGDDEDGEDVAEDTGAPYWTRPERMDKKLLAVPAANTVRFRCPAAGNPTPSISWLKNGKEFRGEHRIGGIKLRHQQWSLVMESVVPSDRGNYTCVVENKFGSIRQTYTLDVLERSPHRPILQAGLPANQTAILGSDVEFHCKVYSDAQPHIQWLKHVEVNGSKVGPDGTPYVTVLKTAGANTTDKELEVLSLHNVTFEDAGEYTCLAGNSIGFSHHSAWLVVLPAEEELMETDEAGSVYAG
The experiment in a line: SPR analysis (Biacore 3000) of binding affinity. Particulars: N.B means antibody does not bind to FGFR3. The protocol:
as §3

B1: A9: anti-FGFR3 antibody, heavy chain SEQ ID NO: 12, light chain SEQ ID NO: 14 (antibody)
heavy: EVQLLESGGGLVQPGGSLRLSCAASGFTFSSYDMSWVRQAPGKGLEWVSGIYSGDGSIYYADSVKGRFTISRDNSKNTLYLQMNSLRAEDTAVYYCAKDGPMNEESRFDYWGQGTLVTVSS[human IgG1 constant region not written out]
light: QSVLTQPPSASGTPGQRVTISCSGSSSNIGNNYVSWYQQLPGTAPKLLIYADSKRPSGVPDRFSGSKSGTSASLAISGLRSEDEADYYCASWDYSLSGYVFGGGTKLTVLGQPKAAPSVTLFPPSSEELQANKATLVCLISDFYPGAVTVAWKADSSPVKAGVETTTPSKQSNNKYAASSYLSLTPEQWKSHRSYSCQVTHEGSTVEKTVAPTEC
In the case of B1, the “specificity to FGFR3” value with human FGFR3 and with cynomolgus FGFR3 [1] was “high specificity” each time. The “binding affinity to FGFR3 positive cells versus FGFR3 negative cells” value in assay [2] (AMB-BT-0050T versus AMB-BT-0013T, FIG. 5) is recorded as “significantly higher binding affinity to the FGFR3 positive cells than to FGFR3 negative cells”. Moreover, the “binding to AMB-BT-0050T cells” value in assay [2] (FIG. 6.1) is recorded as “bind to AMB-BT-0050T cells”. Moreover, the Ka is on record as 1.76E+6 with Human FGFR3-IIIb, 1.67E+6 in the assay with Human FGFR3-IIIc, 1.56E+6 in the assay with cynomolgus FGFR3 [3] and “N.B” with mouse FGFR3. Besides, in the assay with mouse FGFR3, the KD result is listed as “N.B”. The Kd result in the assay with mouse FGFR3 is given as “N.B”.
